# Measured values: the supplement of paper PMC8728848
# The list shows a part of the results.
# B1: Cohesin-marm-DC-ASGPR (protein)
# chain: LDITSHHHHHHDDLDAVRIKVDTVNAKPGDTVRIPVRFSGIPSKGIANCDFVYSYDPNVLEIIEIEPGDIIVDPNPDKSFDTAVYPDRKIIVFLFAEDSGTGAYAITKDGVFATIVAKVKEGAPNGLSVIKFVEVGGFANNDLVEQKTQFFDGGVNVGDTTEPATPTTPVTTPTTTDDLDAASSKFQRDLVTLRTDFSNFTSNTLAEIQALTSQGSSLQETIASLKAEVEGHKQELQAGASELQEHNKQKAHLGRCPHTCVCPSSFVCVPVHSEILLRVQQLVQDLNKLSCQVAILKNNATTERTCCPINWVEHQGSCYWFSRSGKTWPEAERYCQLENTHLVVINSREEQNFVQAHLGSAYTWMGLSDPEGVWKWVDGTDYSSGFQNWKPGQPDDWQGHGLGGGEDCAHFHPDGRWNDDVCQRSYHWVCEAGLTQASQDSHAS
# Columns and labels:
# Assay in all cases: glycan array binding signal (z-score within array); higher = stronger binding
# Settings in all cases: glycan notation: IUPAC condensed, linker removed
# [1] = molecular target: Gal(b1-3)GlcNAc(b1-6)[Gal(b1-3)]GalNAc
# In short: (§1)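 The binding signal is a Z-score computed within each array. Data were drawn from 3228 arrays in the Consortium for Functional Glycomics database, restricted to those with a known protein sequence. Scores were averaged over arrays of the same protein sequence at different concentrations or buffers, and over linkers, and negative values can be taken as non-binding.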
# Gal(b1-3)GlcNAc6S = molecular target: Gal(b1-3)GlcNAc6S
# In short: as §1
# [2] = molecular target: Gal(b1-3)[Fuc(a1-4)]GlcNAc
# In short: as §1
# [3] = molecular target: Gal(b1-3)[Fuc(a1-4)]GlcNAc(b1-2)Man
# In short: as §1
# [4] = molecular target: Gal(b1-3)[Fuc(a1-4)]GlcNAc(b1-2)Man(a1-3)[Gal(b1-3)[Fuc(a1-4)]GlcNAc(b1-2)Man(a1-6)]Man(b1-4)GlcNAc(b1-4)[Fuc(a1-6)]GlcNAc
# In short: as §1
# [5] = molecular target: Gal(b1-3)[Fuc(a1-4)]GlcNAc(b1-3)Gal(b1-3)[Fuc(a1-4)]GlcNAc
# In short: as §1
# [6] = molecular target: Gal(b1-3)[Fuc(a1-4)]GlcNAc(b1-3)Gal(b1-4)[Fuc(a1-3)]GlcNAc
# In short: as §1
# [7] = molecular target: Gal(b1-3)[Fuc(a1-4)]GlcNAc(b1-6)GalNAc
# In short: as §1
# [8] = molecular target: Gal(b1-3)[GlcNAc(b1-6)]GalNAc
# In short: as §1
# [9] = molecular target: Gal(b1-3)[Neu5Ac(a2-6)]GalNAc
# In short: as §1
# [10] = molecular target: Gal(b1-3)[Neu5Ac(a2-6)]GlcNAc(b1-4)Gal(b1-4)Glc
# In short: as §1
# [11] = molecular target: Gal(b1-3)[Neu5Ac(b2-6)]GalNAc
# In short: as §1
# Gal(b1-4)Gal = molecular target: Gal(b1-4)Gal
# In short: as §1
# [12] = molecular target: Gal(b1-4)GalNAc(a1-3)[Fuc(a1-2)]Gal(b1-4)GlcNAc
# In short: as §1
# [13] = molecular target: Gal(b1-4)GalNAc(b1-3)[Fuc(a1-2)]Gal(b1-4)GlcNAc
# In short: as §1
# Gal(b1-4)Glc = molecular target: Gal(b1-4)Glc
# In short: as §1
# Gal(b1-4)Glc6S = molecular target: Gal(b1-4)Glc6S
# In short: as §1
# Gal(b1-4)GlcNAc = molecular target: Gal(b1-4)GlcNAc
# In short: as §1
# [14] = molecular target: Gal(b1-4)GlcNAc(a1-6)Gal(b1-4)GlcNAc
# In short: as §1
# Gal(b1-4)GlcNAc(b1-2)Man = molecular target: Gal(b1-4)GlcNAc(b1-2)Man
# In short: as §1
# [15] = molecular target: Gal(b1-4)GlcNAc(b1-2)Man(a1-3)Man(b1-4)GlcNAc(b1-4)GlcNAc
# In short: as §1
# [16] = molecular target: Gal(b1-4)GlcNAc(b1-2)Man(a1-3)[Gal(b1-4)GlcNAc(b1-2)Man(a1-6)]Man(b1-4)GlcNAc(b1-4)GlcNAc
# In short: as §1
# [17] = molecular target: Gal(b1-4)GlcNAc(b1-2)Man(a1-3)[Gal(b1-4)GlcNAc(b1-2)Man(a1-6)]Man(b1-4)GlcNAc(b1-4)[Fuc(a1-6)]GlcNAc
# In short: as §1
# [18] = molecular target: Gal(b1-4)GlcNAc(b1-2)Man(a1-3)[Gal(b1-4)GlcNAc(b1-2)Man(a1-6)][Gal(b1-4)GlcNAc(b1-4)]Man(b1-4)GlcNAc(b1-4)[Fuc(a1-6)]GlcNAc
# In short: as §1
# [19] = molecular target: Gal(b1-4)GlcNAc(b1-2)Man(a1-3)[Gal(b1-4)GlcNAc(b1-2)Man(a1-6)][GlcNAc(b1-4)]Man(b1-4)GlcNAc(b1-4)[Fuc(a1-6)]GlcNAc
# In short: as §1
# [20] = molecular target: Gal(b1-4)GlcNAc(b1-2)Man(a1-3)[GlcNAc(b1-2)Man(a1-6)]Man(b1-4)GlcNAc(b1-4)GlcNAc
# In short: as §1
# [21] = molecular target: Gal(b1-4)GlcNAc(b1-2)Man(a1-3)[GlcNAc(b1-4)][Gal(b1-4)GlcNAc(b1-2)Man(a1-6)]Man(b1-4)GlcNAc(b1-4)GlcNAc
# In short: as §1
# [22] = molecular target: Gal(b1-4)GlcNAc(b1-2)Man(a1-3)[Man(a1-6)]Man(b1-4)GlcNAc(b1-4)GlcNAc
# In short: as §1
# [23] = molecular target: Gal(b1-4)GlcNAc(b1-2)Man(a1-6)Man(b1-4)GlcNAc(b1-4)GlcNAc
# In short: as §1
# [24] = molecular target: Gal(b1-4)GlcNAc(b1-2)Man(a1-6)[GlcNAc(b1-2)Man(a1-3)]Man(b1-4)GlcNAc(b1-4)GlcNAc
# In short: as §1
# [25] = molecular target: Gal(b1-4)GlcNAc(b1-2)Man(a1-6)[Man(a1-3)]Man(b1-4)GlcNAc(b1-4)GlcNAc
# In short: as §1
# [26] = molecular target: Gal(b1-4)GlcNAc(b1-2)[Gal(b1-4)GlcNAc(b1-4)]Man(a1-3)[Gal(b1-4)GlcNAc(b1-2)Man(a1-6)]Man(b1-4)GlcNAc(b1-4)GlcNAc
# In short: as §1
# [27] = molecular target: Gal(b1-4)GlcNAc(b1-2)[Gal(b1-4)GlcNAc(b1-4)]Man(a1-3)[Gal(b1-4)GlcNAc(b1-2)[Gal(b1-4)GlcNAc(b1-6)]Man(a1-6)]Man(b1-4)GlcNAc(b1-4)GlcNAc
# In short: as §1
# [28] = molecular target: Gal(b1-4)GlcNAc(b1-2)[Gal(b1-4)GlcNAc(b1-4)]Man(a1-3)[GlcNAc(b1-4)][Gal(b1-4)GlcNAc(b1-2)Man(a1-6)]Man(b1-4)GlcNAc(b1-4)GlcNAc
# In short: as §1
# [29] = molecular target: Gal(b1-4)GlcNAc(b1-2)[Gal(b1-4)GlcNAc(b1-4)]Man(a1-3)[GlcNAc(b1-4)][Gal(b1-4)GlcNAc(b1-2)[Gal(b1-4)GlcNAc(b1-6)]Man(a1-6)]Man(b1-4)GlcNAc(b1-4)GlcNAc
# In short: as §1
# [30] = molecular target: Gal(b1-4)GlcNAc(b1-2)[Gal(b1-4)GlcNAc(b1-6)]Man(a1-6)[Gal(b1-4)GlcNAc(b1-2)Man(a1-3)]Man(b1-4)GlcNAc(b1-4)GlcNAc
# In short: as §1
# [31] = molecular target: Gal(b1-4)GlcNAc(b1-2)[Gal(b1-4)GlcNAc(b1-6)]Man(a1-6)[Gal(b1-4)GlcNAc(b1-2)Man(a1-3)]Man(b1-4)GlcNAc(b1-4)[Fuc(a1-6)]GlcNAc
# In short: as §1
binder,measurement,setting,value
B1,glycan array binding signal (z-score),[1],-0.272
same,glycan array binding signal (z-score),Gal(b1-3)GlcNAc6S,-0.296
same,glycan array binding signal (z-score),[2],-0.253
same,glycan array binding signal (z-score),[3],-0.295
same,glycan array binding signal (z-score),[4],-0.265
same,glycan array binding signal (z-score),[5],-0.277
same,glycan array binding signal (z-score),[6],-0.298
same,glycan array binding signal (z-score),[7],0.837
same,glycan array binding signal (z-score),[8],-0.153
same,glycan array binding signal (z-score),[9],-0.286
same,glycan array binding signal (z-score),[10],-0.227
same,glycan array binding signal (z-score),[11],-0.313
same,glycan array binding signal (z-score),Gal(b1-4)Gal,-0.262
same,glycan array binding signal (z-score),[12],-0.262
same,glycan array binding signal (z-score),[13],-0.301
same,glycan array binding signal (z-score),Gal(b1-4)Glc,-0.291
same,glycan array binding signal (z-score),Gal(b1-4)Glc6S,-0.232
same,glycan array binding signal (z-score),Gal(b1-4)GlcNAc,-0.248
same,glycan array binding signal (z-score),[14],-0.282
same,glycan array binding signal (z-score),Gal(b1-4)GlcNAc(b1-2)Man,-0.263
same,glycan array binding signal (z-score),[15],-0.282
same,glycan array binding signal (z-score),[16],-0.277
same,glycan array binding signal (z-score),[17],-0.273
same,glycan array binding signal (z-score),[18],-0.3
same,glycan array binding signal (z-score),[19],-0.31
same,glycan array binding signal (z-score),[20],-0.287
same,glycan array binding signal (z-score),[21],-0.308
same,glycan array binding signal (z-score),[22],-0.114
same,glycan array binding signal (z-score),[23],0.025
same,glycan array binding signal (z-score),[24],-0.285
same,glycan array binding signal (z-score),[25],-0.309
same,glycan array binding signal (z-score),[26],-0.306
same,glycan array binding signal (z-score),[27],-0.31
same,glycan array binding signal (z-score),[28],-0.275
same,glycan array binding signal (z-score),[29],-0.268
same,glycan array binding signal (z-score),[30],-0.241
same,glycan array binding signal (z-score),[31],-0.261
